From PubChem BioAssay AID504832 (National Center for Advancing Translational Sciences (NCATS), 2011)
Screen size: about 310,000 compounds; about 18,000 (5.8%) were called active. Inconclusive means that the source gave no clear call. Such entries were picked first, then a sample of the others. Calls follow the shape of the dose curve; as a rule, active = well fitted inhibition curve with a large enough effect; inconclusive = small, poorly fitted or top-dose-only effect, or another doubt; inactive = no such curve, though single readings can be large or run the other way. Potencies of inconclusive entries are left out as doubtful fits.
% is scaled to controls: 0 for no effect and ±100 for the full control effect; potency is read from the fitted curve at half-maximal effect; tags tell the direction and shape of the fitted curve.

Assay: Primary qHTS for delayed death inhibitors of the malarial parasite plastid, 48 hour incubation
Settings: P. falciparum luciferase growth in erythrocytes; series mostly up to 28.7 µM; activity change, negative = inhibition: at the top concentration
Procedure, shortened: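 Cell-based growth assay: transgenic P. falciparum expressing firefly luciferase, cultured in red cells within RPMI 1640 containing 0.5% w/v Albumax, 24 mM bicarbonate and gentamycin. A drop in luciferase activity indicates inhibition.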
With `CCc1ccc(NC(=O)c2ccc3c(c2)C(=O)N(CCOC)C3Nc2ccc(CC)cc2)cc1` (configuration not stated) the Potency was inconclusive [inhibitor, partial curve]. For `O=C(CCCc1c[nH]c2ccccc12)Nc1ccc(S(=O)(=O)Nc2ncccn2)cc1`, the “activity change, negative = inhibition” value was inactive: -0.214%. With `Cc1cc(NC(=O)c2ccc3nc(-c4ccccc4)c(-c4ccccc4)nc3c2)no1` the Potency was active: 5.22 µM. In the case of `CC(C)(C)OC(=O)NN1CC(=O)N2Cc3ccccc3C[C@@H]2C1=O`, the “activity change, negative = inhibition” value is reported as inactive: -12.6%. In the case of `O=C(Nc1ccc(-c2csc(Nc3ccc(Cl)cc3)n2)cc1)c1cc([N+](=O)[O-])cc(C(F)(F)F)c1`, the Potency is reported as inconclusive [inhibitor, full curve, poor fit]. In the case of `Cc1ccc2nc(-c3cccc(NS(C)(=O)=O)c3)cc(-c3ccccc3)c2c1`, the “activity change, negative = inhibition” value is reported as inactive: 4.29%. With `COc1ccc(C2CC(c3ccccc3)=NN2S(=O)(=O)c2ccccc2)cc1` (configuration not stated) the Potency was inconclusive [inhibitor, single point]. In the case of `NC(=O)C1(NC(=O)[C@@H]2CC3(CC(c4cccc(NC(=O)c5cc([N+](=O)[O-])cc([N+](=O)[O-])c5)c4)=NO3)CN2C(=O)c2ccccc2)CC1` (some centres not stated), the Potency is reported as inconclusive [inhibitor, single point]. With `CCOc1ccc(OCC)c(NC(=O)c2ccc(CNc3c(N4CCCC4)c(=O)c3=O)cc2)c1` the Potency was active: 11.7 µM. In the case of `CC(C)C(NC(=O)c1ccccc1)C(=O)OCn1nnc2ccccc2c1=O` (configuration not stated), the “activity change, negative = inhibition” value is reported as inactive: -11%. For `CC1CCN(CCC(=O)N/N=C/c2ccc([N+](=O)[O-])cc2)CC1`, the “activity change, negative = inhibition” value was inactive: -8.67%. With `COc1ccc(/C=C2\SC(=S)N(CCC(=O)N3CCCCC3CCO)C2=O)cc1` (configuration not stated) the Potency was inconclusive [inhibitor, partial curve]. In the case of `CC(C)c1ccc(C2NCc3ccccc3-n3cccc32)cc1` (configuration not stated), the Potency is reported as inconclusive [inhibitor, partial curve]. In the case of `Cc1ccc2oc(C(=O)NCc3ccc4c(c3)OCO4)c(C)c2c1`, the “activity change, negative = inhibition” value is reported as inactive: 32.7%. In the case of `CCc1nc2ccccc2c(C(=O)OCC(=O)NCc2ccco2)c1C`, the Potency is reported as inconclusive [inhibitor, single point]. In the case of `COc1cc2cnc(-c3ccccc3)c(-c3ccc([N+](=O)[O-])cc3)c2cc1OC`, the “activity change, negative = inhibition” value is reported as inactive: 7.05%. For `COc1ccc(CN2C(=NC(=O)c3ccccc3)SC3CS(=O)(=O)CC32)cc1OC` (configuration not stated), the Potency was inconclusive [inhibitor, partial curve, poor fit]. In the case of `CN(C)CCCN(C(=O)CCc1ccccc1)c1nc2ccc(Cl)cc2s1`, the Potency is reported as inconclusive [inhibitor, single point]. With `O=C(Nc1cccc(-c2cn3ccccc3n2)c1)c1cccc(Cl)c1` the Potency was inconclusive [inhibitor, single point]. In the case of `CC(=O)N1CCCN(Cc2cn(-c3ccc(C)cc3)nc2-c2ccc(F)cc2)CC1`, the Potency is reported as inconclusive [inhibitor, single point]. With `CCOC(=O)N1CCN(c2ccc(S(=O)(=O)N(Cc3ccccc3)Cc3ccccc3)cn2)CC1` the Potency was active: 13.1 µM. In the case of `CCCc1c(C(=O)N/N=C(\C)CCc2ccc(OC)cc2)nnn1-c1nonc1N`, the “activity change, negative = inhibition” value is reported as inactive: 25.2%. For `CCN(C(=O)CN1C(=O)c2ccccc2S1(=O)=O)C1CCCCC1`, the Potency was inconclusive [inhibitor, partial curve, poor fit]. With `N#CCC(=O)Nc1ncc(Cc2ccccc2Cl)s1` the Potency was inconclusive [inhibitor, single point]. With `COc1ccc(C2CC(=O)C3=C(C2)Nc2ccccc2N(C(C)=O)C3c2ccco2)cc1` (configuration not stated) the Potency was inconclusive [inhibitor, single point]. With `Cc1cccc(Cn2c(SCCN3CCCCC3)nc3c2c(=O)[nH]c(=O)n3C)c1` the Potency was inconclusive [inhibitor, partial curve, poor fit]. In the case of `COc1ccc2nc(C)cc(SCC(=O)NNC(=O)COc3ccccc3)c2c1`, the Potency is reported as inconclusive [inhibitor, single point]. With `CCc1ccccc1NC1c2ccccc2C(=O)N1c1cccnc1` (configuration not stated) the Potency was inconclusive [inhibitor, partial curve, poor fit]. In the case of `Cc1ccc(Sc2ncccc2C(=O)O)cc1C`, the “activity change, negative = inhibition” value is reported as inactive: -1.68%. For `O=C(c1cccc(C(F)(F)F)c1)C1CCCN(Cc2cccn2-c2ccccn2)C1` (configuration not stated), the Potency was inconclusive [inhibitor, partial curve, poor fit]. For `CC(C)CCNC(=O)c1onc(CSc2ccc(Cl)cc2)c1C(=O)NCCC(C)C`, the Potency was inconclusive [inhibitor, single point]. In the case of `COc1cc(OC)cc(C(=O)N[C@H](C(=O)NCc2ccc(F)cc2)C(C)C)c1`, the Potency is reported as inconclusive [inhibitor, single point]. In the case of `COC(=O)c1ccc(OS(=O)(=O)c2ccc(NC(C)=O)cc2)cc1`, the “activity change, negative = inhibition” value is reported as inactive: 2.04%. For `C=CCn1cc(C(=O)c2cc(Br)ccc2O)cc(C#N)c1=O`, the Potency was inconclusive [inhibitor, single point]. With `CC(C(=O)O)N(C(=O)c1ccccc1)c1ccc(F)cc1` (configuration not stated) the “activity change, negative = inhibition” value was inactive: 8.5%. For `COc1nnc(-c2ccc(C)cc2)c2ccccc12`, the Potency was inconclusive [inhibitor, single point]. In the case of `CCOCc1c(C(=O)Nc2ccccc2N2CCN(C)CC2)oc2ccccc12`, the Potency is reported as inconclusive [inhibitor, single point]. In the case of `CC(C#N)Sc1nnc(Nc2ccccc2)s1` (configuration not stated), the “activity change, negative = inhibition” value is reported as inactive: -1.33%. In the case of `Cc1cccnc1NC(=O)Cn1nc([N+](=O)[O-])cc1C`, the Potency is reported as inconclusive [inhibitor, partial curve, poor fit]. For `CCOc1cc(C(=O)NCc2ccncc2)cc(OCC)c1OCC`, the Potency was inconclusive [inhibitor, full curve]. For `CC1Cc2ccccc2N1C(=O)COC(=O)c1ccc(Cl)c(S(=O)(=O)N2CCOCC2)c1` (configuration not stated), the Potency was inconclusive [inhibitor, single point]. With `Nc1c(C(=O)NCC2CCCO2)c2nc3ccccc3nc2n1-c1ccccc1` (configuration not stated) the Potency was inconclusive [inhibitor, partial curve, poor fit]. In the case of `COc1ccc(NC(=O)c2cc3sccc3n2Cc2ccc(F)cc2)cc1OC`, the Potency is reported as inconclusive [inhibitor, single point]. In the case of `O=C(CCC(=O)Nc1ccc(Br)cc1)N/N=C/c1ccccc1O`, the Potency is reported as inconclusive [inhibitor, partial curve, poor fit]. In the case of `CC(=O)O[C@]1(C(C)=O)CC[C@H]2[C@@H]3C[C@H](C)C4=CC(=O)CC[C@]4(C)[C@H]3CC[C@@]21C`, the Potency is reported as active: 13.1 µM. In the case of `O=C(CSc1ccccn1)N1CCc2ccccc21`, the “activity change, negative = inhibition” value is reported as inactive: 389%. In the case of `COc1ccc(C(=O)NCc2ccccn2)cc1`, the “activity change, negative = inhibition” value is reported as inactive: 31.9%. For `COc1ccccc1-c1c(-c2ccc(OCC(=O)NN)cc2O)n[nH]c1C(F)(F)F`, the Potency was active: 8.28 µM. With `O=C(Nc1cccc(S(=O)(=O)NC2=NCCC2)c1)c1cc(-c2ccco2)nc2ccccc12` the Potency was inconclusive [inhibitor, partial curve, poor fit]. In the case of `CCOC(=O)Cn1c2c(c(=N)c3c1CCC3)CCC2`, the Potency is reported as active: 1.04 µM. With `O=C(Cc1ccc(S(=O)(=O)N2CCCC2)s1)NC1CCCCCC1` the Potency was inconclusive [inhibitor, single point]. In the case of `S=C(NCc1cccs1)Nc1cc(Cl)cc(Cl)c1`, the Potency is reported as inconclusive [inhibitor, single point]. With `COc1ccc(COn2nnc3ccc(S(=O)(=O)N4CCOCC4)cc32)cc1F` the Potency was inconclusive [inhibitor, single point]. For `Cc1nn(-c2ccccc2)c2c1C(c1ccco1)C(C#N)=C(N)O2` (configuration not stated), the Potency was inconclusive [inhibitor, single point]. With `CCOC(=O)N1CCN(C(=O)CN2C(=O)COc3ccc(C(C)(C)C)cc32)CC1` the Potency was inconclusive [inhibitor, partial curve]. In the case of `O=C(COC(=O)c1ccc(Br)o1)c1ccc(S(=O)(=O)N2CCCCC2)cc1`, the “activity change, negative = inhibition” value is reported as inactive: 11.9%. In the case of `Cc1sc2ncnc(N3CCC(C(=O)N(C)CC(=O)Nc4ccc(Cl)c(C(F)(F)F)c4)CC3)c2c1C`, the Potency is reported as active: 9.28 µM. In the case of `NC(N)=NCCCC(NC(=O)c1ccccc1)C(=O)Nc1ccc2ccccc2c1` (configuration not stated), the Potency is reported as inconclusive [inhibitor, single point]. With `COc1ccccc1-c1cc(C(=O)NCc2ccccc2)no1` the “activity change, negative = inhibition” value was inactive: 4.92%. In the case of `COc1ccc(F)cc1S(=O)(=O)N1CCC2(CC1)OCCN2S(=O)(=O)c1ccccc1`, the Potency is reported as inconclusive [inhibitor, single point]. For `O=C(c1ccccc1F)N1CCN(Cc2nc3sc4c(c3c(=O)[nH]2)CCCC4)CC1`, the “activity change, negative = inhibition” value was inactive: -23.1%. For `CC(C)C[C@H](NC(=O)Nc1ccc(Oc2ccccc2)cc1)C(=O)O`, the “activity change, negative = inhibition” value was inactive: 3.16%. With `O=C(O)Cc1sc(N/N=C\c2ccncc2)nc1-c1ccccc1` the Potency was inconclusive [inhibitor, single point]. In the case of `CCCCC1CCC(C(=O)N(C)CC(=O)Nc2cccc(OC)c2)CC1` (configuration not stated), the Potency is reported as inconclusive [inhibitor, partial curve]. For `CN(C)c1nc(NCc2ccccc2)nc(SCC(=O)Nc2ccccc2)n1`, the Potency was inconclusive [inhibitor, single point]. In the case of `CCOc1cc(/C=N/NC(=O)c2ccc(NC(=O)C3CC3)cc2)ccc1O`, the Potency is reported as inconclusive [inhibitor, partial curve, poor fit]. For `C/C(=N\NC(=O)COc1ccccc1-c1ccccc1)c1ccc(O)cc1O`, the Potency was inconclusive [inhibitor, partial curve].
